For 29 compounds, activity change, negative = inhibition results are on record in PubChem BioAssay AID1745853 (National Center for Advancing Translational Sciences (NCATS), 2022).

The other results are listed elsewhere or left out. Shown are side measurements of this screen, not its main read-out; they come without a call.

What all share (test): Primary Screen for Target Class Profiling of Small Molecule Inhibitors of Methyltransferases
In assay [1] the target is Glycine N-methyltransferase (Homo sapiens) (UniProt Q14749). As to conditions: purified enzyme, MTase-Glo SAH luminescence; measured here: GNMT inhibition; at 40 µM; stronger effect = lower value. The method, boiled down: (§1)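 Each enzyme was reacted with SAM and its substrate, with compounds tested once at 40 uM; SAH formed was read by MTase-Glo luminescence.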
In assay [2] the target is Guanidinoacetate N-methyltransferase (Homo sapiens) (UniProt Q14353). Conditions: purified enzyme, MTase-Glo SAH luminescence; measured here: GAMT inhibition; at 40 µM; stronger effect = lower value. The method, boiled down:
as §1

For assay [3], the target named is Histamine N-methyltransferase (Homo sapiens) (UniProt P50135). As to conditions: purified enzyme, MTase-Glo SAH luminescence; measured here: HNMT inhibition; at 40 µM; stronger effect = lower value. The method, boiled down:
as §1

The target of assay [4] is Nicotinamide N-methyltransferase (Homo sapiens) (UniProt P40261). Conditions: purified enzyme, MTase-Glo SAH luminescence; measured here: NNMT inhibition; at 40 µM; stronger effect = lower value. The method, boiled down:
as §1

Assay [5] deals with Phenylethanolamine N-methyltransferase (Homo sapiens) (UniProt P11086). Conditions: purified enzyme, MTase-Glo SAH luminescence; measured here: PNMT inhibition; at 40 µM; stronger effect = lower value. An outline of the steps:
as §1
On the % scale 0 is the no-effect control and ±100 the full control effect.

Turning to `CC1(C)[C@H]2CC=C(CN3CCC(CCC(=O)N4CCN(c5ccccc5)CC4)CC3)[C@@H]1C2`, the activity change, negative = inhibition in assay [1] was -4.5%; in assay [2] it was -5.63%; in assay [3], -2.42%; in assay [4], -7.22%; in assay [5] it was -17%.
For `O=C1c2cc3occc3n2CC(C(=O)NC2CCCCCCC2)(c2ccccc2)N1Cc1ccc(F)cc1` (stereo not given), the activity change, negative = inhibition in assay [1] was 2.18%; in assay [2] it was 4.56%; in assay [3] it was 0.473%; in assay [4], -2.41%; in assay [5], -4.63%.
Take `CCCN1C(=O)c2c(C(=O)NCc3ccc(N(C)C)cc3)ncn2CC1(C)C(=O)NCc1ccc(F)cc1` (stereo not given): the activity change, negative = inhibition is 4.19% in assay [1]; 1.61% in assay [2]; 7.78% in assay [3]; 1.19% in assay [4]; 11.5% in assay [5].
For `CCOC(=O)c1cc2n(n1)CC(C)(C(=O)NC1CCCCCC1)N(c1ccc(NC(C)=O)cc1)C2=O` (stereo not given), in that order: 6.57%, 0.546%, 5.26%, 8.1% and 4.76%.
`CC1CCC(NC(=O)C2(C)Cn3c(nc4ccccc43)C(=O)N2Cc2ccc3c(c2)OCO3)CC1` (stereo not given): the activity change, negative = inhibition was -5.41% in assay [1]; -8.46% in assay [2]; 8.66% in assay [3]; -22.9% in assay [4]; -4.68% in assay [5].
With `CC(C)Cn1c(=O)c2ccccc2n2c(SCc3ccc(F)cc3Cl)nnc12`, the activity change, negative = inhibition was 1.93% in assay [1]; 0% in assay [2]; 10.4% in assay [3]; -7.74% in assay [4]; 7.84% in assay [5].
On to `CC1CCC2(NC1)OC1CC3C4CC=C5CC(O[C@@H]6O[C@H](CO)[C@@H](O[C@@H]7O[C@@H](C)[C@H](O)[C@@H](O)[C@H]7O)[C@H](O)[C@H]6O[C@@H]6O[C@@H](C)[C@H](O)[C@@H](O)[C@H]6O)CCC5(C)C4CCC3(C)C1C2C` (stereo not given in full), for which the activity change, negative = inhibition was -3.43% in assay [1]; 3.52% in assay [2]; 0.62% in assay [3]; -13.3% in assay [4]; -7.53% in assay [5].
As to `COc1ccc(-n2cccn2)c(CN2CC[C@H](CO)[C@H](O)C2)c1`, the activity change, negative = inhibition in assay [1] was -2.03%; in assay [2], -1.01%; in assay [3] it was 0.498%; in assay [4] it was 0.303%; in assay [5] it was 5.26%.
As to `CCCN1C(=O)c2c(C(=O)NCc3ccc(CC)cc3)ncn2CC1(C)C(=O)NCc1ccc(F)cc1` (stereo not given), the activity change, negative = inhibition is -1.91% in assay [1]; 0% in assay [2]; 4.92% in assay [3]; -2.84% in assay [4]; 4.66% in assay [5].
On to `CC(C)Cn1c(=O)c2ccc(Cl)cc2n2c(SCC(=O)NC3CCCCC3)nnc12`, for which the activity change, negative = inhibition was -1.34% in assay [1]; 2.28% in assay [2]; 2.67% in assay [3]; -7.48% in assay [4]; -2.72% in assay [5].
For `O=S(=O)(c1ccc(F)cc1)N1CCC(Oc2ccc(-c3noc(C4CC4)n3)cc2)C1` (stereo not given), in that order: -4.05%, -7.16%, -2.84%, -6.52% and -6.09%.
Regarding `O=C(NCCc1ccc(Cl)cc1)c1ccc2c(=O)[nH]c3c(C(=O)NC4CCCC4)sc(=S)n3c2c1`, the activity change, negative = inhibition in assay [1] was -46.8%; in assay [2], 3.65%; in assay [3] it was -11.6%; in assay [4], -51.8%; in assay [5] it was -16.1%.
With `Cc1cc2c(cc1Cl)N(C(=O)Nc1ccnc3ccccc13)CC2`, the activity change, negative = inhibition in assay [1] is -54.2%; in assay [2], -3.53%; in assay [3], -8.18%; in assay [4], -43.3%; in assay [5], -21.8%.
Consider `C[C@@H]1CC[C@@]23CC[C@]4(C)[C@@](C=CC5[C@@]6(C)CC[C@H](O)C(C)(C)C6CC[C@]54C)(OC2=O)C3[C@H]1C` (stereo not given in full), for which the activity change, negative = inhibition in assay [1] was 0%; in assay [2] it was -17.4%; in assay [3] it was -7.06%; in assay [4], -35.2%; in assay [5] it was -11.2%.
On to `C=CC[N+]1([C@H]2C[C@H]3[C@@H]4CC[C@H]5C[C@H](OC(C)=O)[C@@H](N6CCCCC6)C[C@]5(C)[C@H]4CC[C@]3(C)[C@H]2OC(=O)CC)CCCCC1`, for which the activity change, negative = inhibition was -0.262% in assay [1]; 6.64% in assay [2]; -76.8% in assay [3]; -10.7% in assay [4]; 2.85% in assay [5].
Regarding `COc1cc2c(cc1-c1ccc(S(C)(=O)=O)cc1)OCC(C)(C)CC2CO` (stereo not given), the activity change, negative = inhibition was -5.72% in assay [1]; -0.682% in assay [2]; -1.78% in assay [3]; -7.96% in assay [4]; 6.6% in assay [5].
The matching figures for `O=C1CC2(CCCC2)CC(=O)N1CCCCN1CCN(c2ncccn2)CC1`: -5.02%, 1.2%, -0.74%, -11.4% and -1.17%.
`CCCC(=O)NCCc1c2n(c3ccc(OC)cc13)CCCc1ccccc1-2`: the activity change, negative = inhibition was -69.6% in assay [1]; -55.7% in assay [2]; -73.7% in assay [3]; -44.1% in assay [4]; -63.4% in assay [5].
For `Cc1nn2c(c1-c1ccccc1C(C)C)N(Cc1ccc(C(=O)O)s1)CCC2`, in that order: -13.2%, -3.07%, -4.53%, -20.4% and 0.59%.
The matching figures for `Cc1ncoc1C(=O)N1CCC(N2CCCC(C(=O)N3CCCC3)C2)CC1` (stereo not given): 0.246%, 0.47%, 2.47%, -1.6% and -9.98%.
On to `CC(C)(O)C1=CCC23COC(C2)C(O)(C(=O)O)CCC13` (stereo not given), for which the activity change, negative = inhibition in assay [1] is 0%; in assay [2] it was 6.02%; in assay [3] it was 8.27%; in assay [4] it was -4.1%; in assay [5], 4.48%.
`COCc1ccc2c(c1)c(OC(C)(C)C(=O)NCC1CCOCC1)nn2Cc1ccccc1`: the activity change, negative = inhibition in assay [1] is -1.47%; in assay [2] it was 2.58%; in assay [3], 2.76%; in assay [4], -1.59%; in assay [5], 0.958%.
With `CN(C)c1cccc(C(=O)Nc2ncc(-c3cnn(C)c3)c3c2OCC3)c1`, the activity change, negative = inhibition in assay [1] is -12.4%; in assay [2] it was -6.18%; in assay [3] it was -3.84%; in assay [4], -8.73%; in assay [5] it was -7.86%.
Consider `Cc1noc(C)c1-c1cc(-c2ccncc2)cn2cncc12`, for which the activity change, negative = inhibition is -24.1% in assay [1]; -12.2% in assay [2]; -12.6% in assay [3]; -29.4% in assay [4]; -21.7% in assay [5].
On to `CC(=O)Oc1ccc(C2Nc3c(C(=O)c4ccccc4)cc(Cl)cc3C3C=CCC32)cc1` (stereo not given), for which the activity change, negative = inhibition in assay [1] was -14.7%; in assay [2], -0.852%; in assay [3] it was -15.4%; in assay [4], -29.9%; in assay [5] it was -18.7%.
On to `C[C@H]1[C@@H]2[C@@H](O)C([C@H](C)C(=O)NCc3ccc(F)cc3)CC[C@@]2(C)CC[C@@H]1NC(=O)Cc1ccccc1` (stereo not given in full), for which the activity change, negative = inhibition is -5.6% in assay [1]; -3.06% in assay [2]; -2.53% in assay [3]; -8.91% in assay [4]; -6.26% in assay [5].
As to `O=C(NOC[C@H](O)CO)c1ccc(F)c(F)c1Nc1ccc(I)cc1F`, the activity change, negative = inhibition in assay [1] is -3.58%; in assay [2], -0.774%; in assay [3], 4.49%; in assay [4] it was -17.8%; in assay [5], 0.029%.
The matching figures for `CC(C)c1cc(-c2ccc(F)c3ccccc23)nc(N)n1`: -5.39%, 2.08%, 5.78%, -27% and -4.33%.
As for `Cc1occc1C(=O)n1ccnc1`, the activity change, negative = inhibition was 4.65% in assay [1]; -4.98% in assay [2]; -6.89% in assay [3]; -15.3% in assay [4]; -7.7% in assay [5].
